Hit rate of the full screen: of about 48,000 compounds, about 1,200 (2.5%) were called active. Roughly 2% stayed inconclusive and do not appear here.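 The calls were made as follows: active = activation of at least 60% and not above a set upper limit (about 1 call in 100 departs from these limits); inconclusive = activation of 40% to 60%, or above that upper limit; inactive = activation under 40%.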 The list shows a part of the results.
target: Probable G-protein coupled receptor 32 (Homo sapiens) (UniProt O75388); test: qHTS for Agonists of Human Resolvin D1 Receptor DRV1; conditions: CHO-K1 GPR32 beta-arrestin PathHunter luminescence, 90 min; at 76.9 µM; hits give high values; zero percent set by DMSO-only wells; also: 0% is about no effect
Sequence of UniProt O75388 (O75388 whole entry, looked up): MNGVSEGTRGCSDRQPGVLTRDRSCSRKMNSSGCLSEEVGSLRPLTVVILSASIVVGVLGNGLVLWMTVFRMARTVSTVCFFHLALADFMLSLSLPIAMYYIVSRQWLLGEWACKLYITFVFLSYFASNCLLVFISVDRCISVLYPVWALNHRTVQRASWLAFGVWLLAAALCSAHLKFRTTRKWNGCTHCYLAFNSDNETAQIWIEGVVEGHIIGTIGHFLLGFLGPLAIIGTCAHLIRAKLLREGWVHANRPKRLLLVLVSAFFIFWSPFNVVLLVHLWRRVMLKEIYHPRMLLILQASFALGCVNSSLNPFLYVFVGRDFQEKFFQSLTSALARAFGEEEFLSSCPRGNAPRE
In short: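 Engineered CHO-K1 line co-expressing GPR32-ProLink and EA-beta-arrestin. Compound treatment lasted 90 min at 37 °C. Luminescence was recorded after 1 h with substrate at ambient temperature, relative to DMSO basal wells.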

Which activation does the source give for `COc1ccc(S(=O)(=O)N(CC(=O)NCCc2ccccc2)c2ccc(Cl)cc2)cc1` here?
Its activation is inactive: 8.52%.

Which activation does the source give for `COc1ccccc1C(=O)Nc1ccc(S(=O)(=O)Nc2nc(C)cc(C)n2)cc1` here?
Its activation is inactive: -2.82%.

`Cc1oc2ncnc(N3CCCCC3)c2c1C(=O)N1CCN(c2ccc(Cl)cc2)CC1` was tested. Which activation did it give?
Its activation is inactive: 2.66%.

How did the activation turn out when `CCOc1ccc(C(=O)c2oc3ccccc3c2NC(=O)c2cc(=O)c3ccc(C)cc3o2)cc1` was run?
The activation was inactive: 3.12%.

With `COc1ccc(NC(=O)c2ccco2)cc1NC(=O)c1cc(Br)ccc1Cl` as the molecule, how does the activation read?
The activation was inactive: 0.387%.

With `COc1ccc(-c2nc3c4ccccc4n(CC(=O)N4CCN(c5ccccc5F)CC4)c(=O)n3n2)cc1` as the molecule, how does the activation read?
Its activation is inactive: -7.62%.

With `CCc1ccc(NC(=O)CCCc2nnc3n(C(C)CC)c(=O)c4sccc4n23)cc1` (stereo not drawn) as the molecule, how does the activation read?
The activation was inactive: -15.2%.

With `Cc1ccc(NC(=O)CSc2nnc(NC(=O)NC3CCCCC3)s2)cc1` as the molecule, how does the activation read?
Its activation is inactive: 10.5%.

With `CCCCN(CC)CCNC(=O)c1nn(C)c2c1CS(=O)(=O)c1ccccc1-2` as the molecule, how does the activation read?
The activation was inactive: -4.07%.

For `CCOC(=O)c1scc(-c2ccc(C)cc2)c1S(=O)(=O)N1CCN(c2ccccc2)CC1`, which activation is on record?
The activation was inactive: -11.1%.

`Cc1cc(C)cc(NC(=O)C2CCN(c3nnc(-n4c(C)ccc4C)s3)CC2)c1` was tested. Which activation did it give?
Its activation is inactive: -20.1%.

How did the activation turn out when `COc1ccc(-c2noc(COc3ccc(C)cc3C)n2)cc1OC` was run?
Its activation is inactive: -22.9%.

For `CCc1cccc(NC(=O)CN(C)S(=O)(=O)c2ccc3c(c2)n(C)c(=O)c(=O)n3C)c1`, which activation is on record?
The activation was inactive: -24.2%.

For `CCOc1cc(C(=O)Nc2ccc3nc(N4CCN(C)CC4)cc(C)c3c2)cc(OCC)c1OCC`, which activation is on record?
Its activation is inactive: -8.25%.

With `CC(=O)c1ccc(NS(=O)(=O)c2ccc3[nH]c(=O)[nH]c3c2)cc1` as the molecule, how does the activation read?
Its activation is inactive: 8.79%.

Which activation does the source give for `COc1ccc(S(=O)(=O)N(CC(=O)Nc2ccc(C)cc2)c2ccc(C)cc2)cc1OC` here?
The activation was inactive: -5.4%.

`COc1ccc(-n2c(SCC(=O)Nc3ccc4c(c3)OCO4)nc3c([nH]c4ccccc43)c2=O)cc1` was tested. Which activation did it give?
Its activation is inactive: -9.2%.

`COc1cccc(CNC(=O)C2=C(C)C(=O)OC23CCCCCC3)c1` was tested. Which activation did it give?
The activation was inactive: -20.3%.

With `Cc1cccc(N2CCN(C(=O)CCNS(=O)(=O)c3ccc4c(c3)CCN4C(=O)C3CC3)CC2)c1C` as the molecule, how does the activation read?
The activation was inactive: 43.7%.

Which activation does the source give for `COc1ccc2nc(NC(=O)c3nc(S(=O)(=O)Cc4ccc(C)cc4)ncc3Cl)sc2c1` here?
The activation was inactive: 0.105%.

Which activation does the source give for `COc1ccc(Nc2cc(C)c3cc(NC(=O)COc4cccc(C)c4)ccc3n2)cc1` here?
The activation was active: 72.4%.

`O=C(CN1C(=O)c2ccccc2Sc2ncccc21)Nc1cccc(C(F)(F)F)c1` was tested. Which activation did it give?
Its activation is inactive: 17%.

Which activation does the source give for `COc1ccc(Cl)cc1NC(=O)c1noc2c1CCc1ccccc1-2` here?
Its activation is inactive: 1.68%.

How did the activation turn out when `Cc1cc(C)c(Cn2cnc3nc4c(cc3c2=O)CCCC4)c(C)c1` was run?
The activation was inactive: -18.4%.

For `CCOc1ccccc1NC(=O)CN(c1cc(C)cc(C)c1)S(=O)(=O)c1c(C)nn(C)c1C`, which activation is on record?
The activation was inactive: -13%.

How did the activation turn out when `CCc1cc(=O)oc2c(C)c(OCC(=O)Nc3ccc(S(=O)(=O)N(CC)CC)cc3)ccc12` was run?
The activation was inactive: -7.07%.

For `CCOc1ccc2nc(Cl)c(C3CC(c4ccccc4)=NN3C(=O)CCC(=O)O)cc2c1` (stereo not drawn), which activation is on record?
The activation was inactive: -2.64%.

How did the activation turn out when `CCOc1ccc(NC(=O)N2CCC(n3c(C)nc4cccnc43)CC2)cc1` was run?
Its activation is inactive: -7.5%.

For `CCOc1ccc(C(=O)NCC(c2ccc3c(c2)OCO3)N2CCN(C)CC2)cc1` (stereo not drawn), which activation is on record?
Its activation is inactive: 1.3%.

How did the activation turn out when `Cc1nn2c(C)c(C(=O)NCc3cccc(Br)c3)cnc2c1-c1ccccc1` was run?
The activation was inactive: -3.85%.

Which activation does the source give for `CCOc1ccc(S(=O)(=O)N(CC(=O)Nc2ccc(OC)c(Cl)c2)c2ccccc2)cc1` here?
The activation was inactive: 5.38%.

How did the activation turn out when `Cc1ccc(-c2nnc(Nc3ccc(O)cc3)c3ccccc23)cc1S(=O)(=O)NC(C)(C)CO` was run?
Its activation is inactive: -7.9%.

Which activation does the source give for `NC(=O)C(=O)N/N=C/c1ccc([N+](=O)[O-])o1` here?
Its activation is inactive: 41.1%.

`CCN(CC)C(=O)Cn1c(=O)n(CCCCCC(=O)Nc2ccccc2)c(=O)c2sccc21` was tested. Which activation did it give?
The activation was inactive: -15%.

How did the activation turn out when `CCOC(=O)c1sc2ncn(CC(=O)Nc3cc(C)cc(C)c3)c(=O)c2c1C` was run?
The activation was inactive: -6.41%.

Which activation does the source give for `COC(=O)c1ccccc1NC(=O)Cn1c(=O)cc(-c2ccccc2)c2c(C)nn(C)c21` here?
The activation was inactive: -11.6%.

How did the activation turn out when `CC(C)(C)NCC(O)COc1cccc2[nH]c(=O)[nH]c12` (stereo not drawn) was run?
The activation was inactive: 13.1%.

How did the activation turn out when `O=C(NCc1ccccc1F)c1cc2ccccn2n1` was run?
The activation was inactive: 13.9%.

How did the activation turn out when `Cc1ccc(CN2CCc3nc(N4CCN(c5ccccc5F)CC4)ncc3C2)s1` was run?
The activation was inactive: -8.76%.

Which activation does the source give for `Cc1ccc(NC(=O)C2CCCN2S(=O)(=O)c2cccc3nsnc23)c(Br)c1` (stereo not drawn) here?
Its activation is inactive: -30.5%.

`Cc1ccc2oc(=O)c3cc(C(=O)NCc4ccc(Cl)cc4)sc3c2c1` was tested. Which activation did it give?
Its activation is inactive: -14.9%.

Which activation does the source give for `Cc1cccc(-c2nc(C)c(CCNC(=O)C(=O)Nc3c(C)cc(C)cc3C)s2)c1` here?
Its activation is inactive: -6.29%.

How did the activation turn out when `Cc1cc(SCC(=O)NCc2ccccc2Cl)nc(=O)[nH]1` was run?
The activation was inactive: 11.4%.

With `COc1ccc(CNC(=O)c2ccc(NC(=O)N3CCCCc4ccccc43)cc2)c(OC)c1` as the molecule, how does the activation read?
The activation was inactive: -0.254%.

For `Cc1ccc(-c2noc(CSc3nnc(C)n3-c3ccc(F)cc3)n2)cc1`, which activation is on record?
The activation was inactive: -9.46%.

`Cc1cccc(C)c1NC(=O)CCS(=O)(=O)c1ccc2c(c1)n(C)c(=O)c(=O)n2C` was tested. Which activation did it give?
Its activation is inactive: 5.94%.

Which activation does the source give for `COc1ccc(-c2csc3nc(-c4ccc(F)cc4)oc(=O)c23)cc1OC` here?
Its activation is inactive: -2.86%.

How did the activation turn out when `Cc1cc(/C=C(\C#N)C(=O)Nc2ccccc2)c(C)n1-c1ccc(F)cc1` was run?
Its activation is inactive: -6.48%.

Which activation does the source give for `COC(=O)c1ccccc1NC(=O)c1sc2nc(C)cc(C)c2c1NC(=O)c1ccccc1Cl` here?
Its activation is inactive: -4.24%.

With `COc1ccc2c(CNCc3cccs3)c(C(=O)O)n(Cc3cccc(F)c3)c2c1` as the molecule, how does the activation read?
Its activation is inactive: 48.9%.

Which activation does the source give for `CCOC(=O)NNc1ccc(N(CC)CC(C)O)nn1` (stereo not drawn) here?
The activation was inactive: 5.44%.

For `COc1ccc(NC(=O)c2cc(C(C)=O)n3ccccc23)cc1Cl`, which activation is on record?
Its activation is inactive: -7.12%.

Which activation does the source give for `CCOC(=O)c1cccc(NC(=O)C2CCN(S(=O)(=O)c3c(C)noc3/C=C/c3ccc(C)cc3)CC2)c1` here?
The activation was inactive: 0.183%.
